Results as given in paper PMC4336329 (PLoS ONE, 2015).
Hit rate of the full screen: of about 310,000 compounds, about 14,000 (4.5%) showed an effect of 50% or more. The effect is printed as a negative number. This is one part of the list.
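Note: peak tail current of the secondary pulse compared with the same well before compound.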

What follows are compounds tested against human ether-à-go-go-related gene (hERG) potassium channel (human, UniProt Q12809) (assay: primary screen, population patch clamp on CHO cells stably expressing hERG).
human ether-à-go-go-related gene (hERG) potassium channel, sequence (Q12809 whole entry, looked up): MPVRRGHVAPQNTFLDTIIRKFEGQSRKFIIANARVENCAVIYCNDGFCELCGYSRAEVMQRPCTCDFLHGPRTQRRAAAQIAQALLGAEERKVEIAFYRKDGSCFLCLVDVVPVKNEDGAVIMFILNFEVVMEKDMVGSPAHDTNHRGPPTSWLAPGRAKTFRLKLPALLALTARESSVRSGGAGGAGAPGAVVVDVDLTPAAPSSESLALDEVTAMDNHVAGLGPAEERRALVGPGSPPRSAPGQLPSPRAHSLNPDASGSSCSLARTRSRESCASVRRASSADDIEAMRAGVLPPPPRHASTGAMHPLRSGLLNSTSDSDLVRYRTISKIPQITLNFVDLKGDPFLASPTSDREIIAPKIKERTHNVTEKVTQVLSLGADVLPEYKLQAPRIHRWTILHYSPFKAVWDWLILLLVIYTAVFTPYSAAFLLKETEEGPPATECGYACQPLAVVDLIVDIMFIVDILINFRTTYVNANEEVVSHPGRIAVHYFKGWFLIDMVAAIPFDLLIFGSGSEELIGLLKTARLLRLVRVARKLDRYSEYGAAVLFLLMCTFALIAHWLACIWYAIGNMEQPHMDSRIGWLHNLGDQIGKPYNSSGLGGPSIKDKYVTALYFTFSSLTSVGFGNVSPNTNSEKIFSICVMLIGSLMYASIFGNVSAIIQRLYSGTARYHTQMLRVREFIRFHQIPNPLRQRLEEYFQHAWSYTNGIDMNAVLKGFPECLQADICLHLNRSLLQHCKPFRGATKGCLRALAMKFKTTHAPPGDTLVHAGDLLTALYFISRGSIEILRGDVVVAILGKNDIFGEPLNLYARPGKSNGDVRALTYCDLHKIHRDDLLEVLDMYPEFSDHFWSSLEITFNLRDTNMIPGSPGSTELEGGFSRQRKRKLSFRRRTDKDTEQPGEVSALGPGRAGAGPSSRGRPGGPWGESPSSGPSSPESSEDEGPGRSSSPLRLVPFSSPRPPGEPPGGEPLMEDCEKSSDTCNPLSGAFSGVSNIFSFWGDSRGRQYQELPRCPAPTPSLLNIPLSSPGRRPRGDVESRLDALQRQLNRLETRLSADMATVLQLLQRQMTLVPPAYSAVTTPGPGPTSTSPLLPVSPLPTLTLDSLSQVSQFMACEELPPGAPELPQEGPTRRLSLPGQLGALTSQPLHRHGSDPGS
For COc1ccc2nc(C)cc(Nc3cccc(C(=O)O)c3)c2c1, the “hERG current change (%, negative = inhibition) at 10uM” value was 21.7%. With COc1ccc(CN2CCN(C(=O)c3cccc4ccccc34)CC2)cc1OC.O=C(O)C(=O)O the “hERG current change (%, negative = inhibition) at 10uM” value was -3.88%. In the case of COc1cc(OC)cc(C(=O)NC(=S)NNC(=O)[C@H]2C[C@@H]2c2ccccc2)c1, the “hERG current change (%, negative = inhibition) at 10uM” value is reported as 28.5%. For Cc1csc2c(N3CCCCC3)ncnc12, the “hERG current change (%, negative = inhibition) at 10uM” value was 6.1%. With O=C(Nc1cccc([N+](=O)[O-])c1)c1ccc(-c2ccccc2)cc1 the “hERG current change (%, negative = inhibition) at 10uM” value was -8.22%. In the case of CCn1c(SCc2ccc(C(=O)OC)o2)nc2sc3c(c2c1=O)CCCC3, the “hERG current change (%, negative = inhibition) at 10uM” value is reported as 11.1%. O=C(CN1C(=O)/C(=C\c2ccccc2F)SC1=S)Nc1nc2ccccc2s1 was tested, and the “hERG current change (%, negative = inhibition) at 10uM” value was 6.36%. In the case of Cc1ccc(NS(=O)(=O)c2ccc(Br)s2)nc1, the “hERG current change (%, negative = inhibition) at 10uM” value is reported as 23.4%. For Cc1cccc([C@@H]2[C@@H]3C(=O)N(Cc4ccccc4)C(=O)[C@@H]3[C@]3(Cc4ccccc4)C(=O)N(c4cccc(F)c4)C(=O)N23)c1, the “hERG current change (%, negative = inhibition) at 10uM” value was 7.77%. With CCCCn1c(N)c(N(CCOC)C(=O)COC(=O)C(C)(C)Oc2ccc(Cl)cc2)c(=O)[nH]c1=O the “hERG current change (%, negative = inhibition) at 10uM” value was -14.7%. O=C(CNS(=O)(=O)N1CCOCC1)N/N=C/c1cccnc1 was tested, and the “hERG current change (%, negative = inhibition) at 10uM” value was 11.2%. For COCCNCCOc1ccc(C)cc1[N+](=O)[O-].O=C(O)C(=O)O, the “hERG current change (%, negative = inhibition) at 10uM” value was -29.5%. For CC(C)(C)Nc1nc(Oc2ccc(=O)n(-c3ccccc3)n2)nc(N2CCOCC2)n1, the “hERG current change (%, negative = inhibition) at 10uM” value was -6.58%. In the case of CCOC(=O)c1sc2nc3c(SCC(=O)O)cc(C(=O)c4cc(F)ccc4O)cn3c(=O)c2c1C, the “hERG current change (%, negative = inhibition) at 10uM” value is reported as 7.27%. With CCCn1c(SCC(=O)Nc2nc3c(s2)CCCC3)nc2c1c(=O)n(C)c(=O)n2C the “hERG current change (%, negative = inhibition) at 10uM” value was -1.39%. With Cc1cc(C)cc(NC(=O)Cn2nnc(C(=O)NCc3ccccc3Cl)c2N)c1 the “hERG current change (%, negative = inhibition) at 10uM” value was 15.3%. C[N+]1(C)C2CC(OC(=O)C(CO)c3ccccc3)CC1C1OC12.[Br-] (stereo not drawn) was tested, and the “hERG current change (%, negative = inhibition) at 10uM” value was -0.198%. In the case of CCN(CC)C(=O)c1ccc(NS(=O)(=O)c2ccc(/C=C/C(=O)O)cc2)cc1, the “hERG current change (%, negative = inhibition) at 10uM” value is reported as 19.8%. In the case of C=C(C)CCC(C)N1CCC(n2nccc2NC(=O)CCCc2ccccc2)CC1 (stereo not drawn), the “hERG current change (%, negative = inhibition) at 10uM” value is reported as -74.2%. With Cc1ccc(-c2noc(=O)n2CC(=O)Nc2ccc(S(=O)(=O)NC3CC3)cc2)cc1 the “hERG current change (%, negative = inhibition) at 10uM” value was -7.37%. For O=C(Nc1ccccc1)c1ccccc1N=Cc1ccccc1O, the “hERG current change (%, negative = inhibition) at 10uM” value was 2.2%. For Cc1nn(C)c(C)c1S(=O)(=O)N(CC(=O)NCCCOC(C)C)c1ccc(C(C)C)cc1, the “hERG current change (%, negative = inhibition) at 10uM” value was -69.6%. For Cc1noc(C)c1CSCC(=O)N1CCN(c2ccc(F)cc2)CC1, the “hERG current change (%, negative = inhibition) at 10uM” value was -38.1%. In the case of Cc1csc(NC(=O)C2C3C=CC(O3)C2C(=O)O)n1 (stereo not drawn), the “hERG current change (%, negative = inhibition) at 10uM” value is reported as 12%. In the case of COc1ccc(/C=C/C(=O)NCC(=O)N=Nc2c(O)[nH]c3ccc([N+](=O)[O-])cc23)cc1, the “hERG current change (%, negative = inhibition) at 10uM” value is reported as 13.6%. In the case of CCOC(=O)N1CCN(C(=S)Nc2cc(OC)c(OC)cc2C(=O)OC)CC1, the “hERG current change (%, negative = inhibition) at 10uM” value is reported as 4.68%. With c1ccc2sc(-c3ccncc3)nc2c1 the “hERG current change (%, negative = inhibition) at 10uM” value was -4.32%. For O=C1c2ccccc2S(=O)(=O)c2cc(C(=O)N3CCN(c4ccccc4)CC3)ccc21, the “hERG current change (%, negative = inhibition) at 10uM” value was -25%. In the case of COc1ccccc1Nc1cc(C(=O)NCCCN2CCOCC2)c2ccccc2n1, the “hERG current change (%, negative = inhibition) at 10uM” value is reported as -37.3%. For O=C(CSC(=S)N1CCOCC1)N1N=CCC1c1ccccc1 (stereo not drawn), the “hERG current change (%, negative = inhibition) at 10uM” value was -5.99%. With COC(=O)[C@]1(Cc2ccccc2)N[C@H](c2ccc(-c3ccc(OC)cc3)cc2)[C@@H]2C(=O)N(C)C(=O)[C@@H]21.O=C(O)C(F)(F)F the “hERG current change (%, negative = inhibition) at 10uM” value was -9.55%. CN(C)c1ccnc2sc(C(=O)c3ccc(Br)cc3)c(N)c12 was tested, and the “hERG current change (%, negative = inhibition) at 10uM” value was 10.5%. CCn1cc(CN2CCC(C(=O)Nc3cccc(-c4cccc(OC)c4)c3)CC2)cn1 was tested, and the “hERG current change (%, negative = inhibition) at 10uM” value was -49.8%. In the case of O=C1COc2ccc(S(=O)(=O)CCC(=O)N3CCN(c4cccc(C(F)(F)F)c4)CC3)cc2N1, the “hERG current change (%, negative = inhibition) at 10uM” value is reported as -46.3%. O=[N+]([O-])c1ccc(NCc2ccccc2N2CCC(CO)CC2)nc1 was tested, and the “hERG current change (%, negative = inhibition) at 10uM” value was -36.7%. With CC(C)NC(=O)C1CCCN(S(C)(=O)=O)C1 (stereo not drawn) the “hERG current change (%, negative = inhibition) at 10uM” value was 16.2%. For Cc1nc2ccc(S(=O)(=O)N(C)CC(=O)Nc3ccccc3F)cc2s1, the “hERG current change (%, negative = inhibition) at 10uM” value was -17.1%. With N#CCn1c(C2CCCCC2)nc2ccccc2c1=O the “hERG current change (%, negative = inhibition) at 10uM” value was -20.6%. For CCOC(=O)/C(C#N)=C1\CC2CCC1(C)C2(C)C (stereo not drawn), the “hERG current change (%, negative = inhibition) at 10uM” value was 9.79%. In the case of COc1cc(NC(=S)NCCCN2CCOCC2)cc(OC)c1, the “hERG current change (%, negative = inhibition) at 10uM” value is reported as -5.39%. Cn1c(SCC(=O)NCCc2ccccc2)ncc(C(=O)Nc2ccccc2)c1=O was tested, and the “hERG current change (%, negative = inhibition) at 10uM” value was 6.68%. With COc1ccc2cc1Oc1ccc(cc1)CC1c3c(cc(OC)c4c3Oc3cc5c(cc3O4)CCNC5C2)CCN1C (stereo not drawn) the “hERG current change (%, negative = inhibition) at 10uM” value was 0.681%.
